Measurements reported in PubChem BioAssay AID2546 (National Center for Advancing Translational Sciences (NCATS), 2010).
The whole screen tested about 310,000 compounds, of which about 11,000 (3.5%) were called active. This list was built around the results that the source calls inconclusive (neither active nor inactive); the mix of calls is not that of the screen. The call rests on the fitted dose curve; in most records, active means well fitted inhibition curve with a large enough effect; inconclusive means small, poorly fitted or top-dose-only effect, or effect the other way; inactive means flat fitted curve, though single readings scatter. Potencies of inconclusive entries are left out as doubtful fits.

Experiment: VP16 counterscreen qHTS for inhibitors of ROR gamma transcriptional activity;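 further: Gal4-VP16 expression switched on by copper sulfate through the metallothionein promoter; nearly all actives have a fitted effect of over 50% in size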
Details: Drosophila S2 Gal4-VP16 UAS-luciferase, luminescence, 20 h; activity, negative = inhibition: at 53.6 µM (top of the series)
On the % scale 0 is the no-effect control and ±100 the full control effect; potency means the concentration at half of the fitted maximal effect; tags describe the fitted curve by direction and shape.

Row | Compound | Potency | activity, negative = inhibition
1 | CC(C)Nc1nc(Oc2ccc(Cl)cc2Cl)cc(C(F)(F)F)n1 | inconclusive [inhibitor, partial curve, poor fit] | –
2 | N=c1n(CC(=O)c2ccc(Br)s2)c2ccccc2n1Cc1ccccc1 | active: 14.1 µM | –
3 | COc1ccc(NC(=O)CSCc2ccccc2C)cc1 | inconclusive [activator, single point] | –
4 | Cc1ccc(NC(=O)c2ccc(NC(=O)C3CCCCC3C(=O)O)cc2)cc1 (stereo not drawn) | inactive | –
5 | Cc1csc(=N)n1-c1ccc(Cl)cc1 | active: 11.2 µM | –
6 | O=C(O)c1cccc(-n2cccc2/C=C\[N+](=O)[O-])c1 | inconclusive [inhibitor, single point] | –
7 | Cc1ccc2nsnc2c1S(=O)(=O)Nc1cccc2nsnc12 | inactive | –
8 | NC(=O)c1ccccc1NC(=O)Cc1cccs1 | inactive | –
9 | CSc1nc2ccc(S(=O)(=O)N(C)C)cc2s1 | inconclusive [inhibitor, single point] | –
10 | COc1ccc(-n2c(SCc3ccc([N+](=O)[O-])cc3)nnc2-c2ccc(C)cc2)cc1 | active: 4.47 µM | –
11 | COc1ccc(N=Nc2n(C)c3ccccc3[n+]2C)cc1 | active: 2 µM | –
12 | CC(C)c1ccc(Nc2nc(CC(=O)O)cs2)cc1 | inconclusive [inhibitor, single point] | –
13 | Cc1ccccc1/C=C1\C(=O)Nc2ccc(F)cc21 | inactive | –
14 | C=C1C(=O)OC2C1CC/C(C)=C/CCC1(C)OC21 (stereo not drawn) | active: 3.98 µM | –
15 | COCCCN(C(=S)NC(=O)c1ccc(C(C)(C)C)cc1)c1c(N)n(Cc2ccccc2)c(=O)[nH]c1=O | inconclusive [inhibitor, single point] | –
16 | Cc1c(Cl)cccc1NC(=S)NCc1ccccc1Cl | active: 1.58 µM | –
17 | CC(C)(C)c1ccc(S(=O)(=O)NCC(=O)N2CCN(C(=O)c3ccco3)CC2)cc1 | inactive | –
18 | S=c1[nH]nc(-c2ccco2)n1/N=C/C=C/c1ccccc1 | inconclusive [inhibitor, full curve] | –
19 | Cc1cc(/C=N/n2cnnc2)c(C)n1-c1ccc(OCc2ccc(F)cc2)cc1 | inconclusive [inhibitor, single point] | –
20 | CC(C)C1N(C(N)=S)N=CC1(C)C (stereo not drawn) | inconclusive [inhibitor, single point] | –
21 | Cc1cc(C[n+]2cc(Cl)ccc2N)c2ncccc2c1 | inactive | –
22 | CCOC(=O)C1CCN(C(=O)c2ccc(Cl)c(S(=O)(=O)N3CCCC3)c2)CC1 | inconclusive [activator, single point] | –
23 | c1ccc2c(c1)[nH]c1c(N3CCC4(CC3)OCCO4)ncnc12 | inconclusive [inhibitor, single point] | –
24 | Cc1cc(C(=O)CSc2nnc(Nc3ccccc3)s2)c(C)n1CC1CCCO1 (stereo not drawn) | inactive | –
25 | COCCNC(=S)N1CCC(c2nc(-c3ccc(N(C)C)cc3)no2)CC1 | inconclusive [inhibitor, single point] | –

Row | Compound | Potency | activity, negative = inhibition
26 | CCC(C)c1ccc(NC(=S)NC2CCN(Cc3ccccc3)CC2)cc1 (stereo not drawn) | active: 7.08 µM | –
27 | CN(C)c1ccc(/C=N/NC2=NS(=O)(=O)c3ccccc32)cc1 | active: 5.62 µM | –
28 | O=C(c1cccc(Cl)c1)N1CCCC(c2ccc(Cl)cc2)=N1 | inconclusive [inhibitor, single point] | –
29 | Fc1cccc(CN2CCN3CCCC3C2C2CCCCC2)c1 (stereo not drawn) | inactive | –
30 | Cc1nc(-c2ccccn2)nc(SCC(=O)c2ccc(F)cc2)c1Cl | inconclusive [inhibitor, single point] | –
31 | Cc1cc(C(=O)COC(=O)CC2Sc3ccccc3NC2=O)c(C)n1-c1ccc(Br)cc1 (stereo not drawn) | inconclusive [inhibitor, single point] | –
32 | C(=C/c1nccc2c1[nH]c1ccccc12)/c1ccc2c(c1)OCO2 | inactive | –
33 | NNC(=O)c1sc2cc(C(F)(F)F)cnc2c1-c1cccs1 | inconclusive [inhibitor, partial curve] | –
34 | COc1ccc(NC(=S)N2CCC(C(O)(c3ccccc3)c3ccccc3)CC2)cc1 | inconclusive [inhibitor, single point] | –
35 | CCN(CC)C(=O)C1CCCN(C(=S)Nc2cccc3ccccc23)C1 (stereo not drawn) | inconclusive [inhibitor, single point] | –
36 | O=C(c1ccc(COc2ccc3ccccc3c2)o1)N1N=C(C(F)F)CC1(O)C(F)F (stereo not drawn) | inconclusive [inhibitor, single point] | –
37 | CCn1cc(CN2CCCC(C(=O)Nc3ccc(-c4cscn4)cc3)C2)c(C)n1 (stereo not drawn) | inactive | –
38 | O=c1c2ccccc2nnn1CSc1nnnn1-c1ccccc1 | inconclusive [inhibitor, single point] | –
39 | c1csc(CSc2nnc3sc4ccccc4n23)c1 | inconclusive [activator, full curve] | –
40 | COc1ccc(Cl)cc1NC(=O)CC1S/C(=N/N=C2CCCCCC2)NC1=O (stereo not drawn) | active: 5.01 µM | –
41 | CC(C)CCN1CCc2nc(-c3ccccc3)c3c(c2C1)COC(C)C3 (stereo not drawn) | – | inactive: 2.09% [at 10 µM]
42 | Cn1nc(C(C)(C)C)cc1C(=O)NCc1cc(F)cc2c1OCOC2 | active: 3.55 µM | –
43 | COc1cc(NC(=O)c2cc3ccccc3o2)c(OC)cc1Cl | inconclusive [inhibitor, single point] | –
44 | CCCCCS(=O)(=O)CCCCCCCCCCn1c(-c2ccc(O)cc2)c(C)c2cc(O)ccc21 | active: 20 µM | –
45 | CC1CCCC(C)N1NC(=O)c1ccc(Cl)c(S(N)(=O)=O)c1 (stereo not drawn) | inactive | –
46 | CC[C@@]1(O)C(=O)OCc2c1cc1n(c2=O)Cc2cc3c(CN(C)C)c(O)ccc3nc2-1 | inconclusive [inhibitor, full curve] | –
47 | CCc1ccc(CN(C)C(=O)CCc2nnc(CCc3ccccc3OC)o2)nc1 | inactive | –
48 | COc1ccc(N=Cc2c(O)[nH]c3ccccc23)cc1OC | inconclusive [activator, single point] | –
49 | CN(C)CCCN(C(=O)c1ccc(S(=O)(=O)N2CCCC2)cc1)c1nc2ccc(Br)cc2s1 | inconclusive [inhibitor, single point] | –
50 | CCOC(=O)C1=C(CC)Nc2ccccc2N=C1NC(=O)Nc1ccc(Cl)c(Cl)c1 | inconclusive [inhibitor, single point] | –

Row | Compound | Potency | activity, negative = inhibition
51 | O=c1[nH]cnc2c1sc1nc(-c3ccccc3)c3c(c12)CCCC3 | inconclusive [activator, single point] | –
52 | Cc1cc2nc(C)c(=O)n(C)c2cc1C | inactive | –
53 | Cc1ccc(-n2nnc(-c3nccn3C)n2)cc1 | inconclusive [inhibitor, partial curve] | –
54 | O=C(CSc1nnnn1-c1ccccc1)c1cc2ccccc2oc1=O | inconclusive [activator, full curve, poor fit] | –
55 | Cc1cc(C)n(-c2ccc(C(=O)C(C#N)c3nc4ccccc4n3C)cc2)n1 (stereo not drawn) | active: 8.91 µM | –
56 | CCCC(C(=O)NC1=NCCS1)c1ccccc1 (stereo not drawn) | inconclusive [inhibitor, partial curve] | –
57 | CC(C)(C)c1cc(NC(=O)CSc2nnc(NCc3ccccc3)s2)n(-c2ccccc2)n1 | inconclusive [inhibitor, single point] | –
58 | Nc1scc(-c2ccncc2)c1Cl | inconclusive [activator, partial curve] | –
59 | CCN(C(C)=O)c1nnc(CSc2nc3ccccc3s2)s1 | inconclusive [inhibitor, single point] | –
60 | COc1ccccc1/C=C/C=N/n1c(-c2n[nH]c3c2CCC3)n[nH]c1=S | inactive | –
61 | N#CCCCN1C(=O)C(=C(C#N)C#N)c2ccccc21 | inconclusive [inhibitor, single point] | –
62 | O=C(NN=C1CCCCCC1)c1cccs1 | inactive | –
63 | Nc1nc2ccccc2n1C(=O)c1cccs1 | active: 2.82 µM | –
64 | COc1ccc(CC(=O)Nc2cc(C)ccc2O)cc1OC | inconclusive [inhibitor, single point] | –
65 | CCOC(=O)C1C(C(=O)OC)=C(CC(C)C)c2ccccc2N1S(=O)(=O)C(F)(F)F (stereo not drawn) | inactive | –
66 | Cc1c(NC(=O)CN2C(=O)NC(C)(c3ccccc3)C2=O)c(=O)n(-c2ccccc2)n1C (stereo not drawn) | inconclusive [activator, single point] | –
67 | CCCc1cc2c(n1Cc1cc(F)cc(F)c1)C(C)C1CN(C(=O)c3ccccc3)C(C)(C(=O)OC)C21 (stereo not drawn) | inactive | –
68 | CCCC1/C(=N/O)CC(c2ccccc2)NC1c1ccccc1 (stereo not drawn) | inconclusive [inhibitor, single point] | –
69 | Cc1cc(C)c(OCC(=O)N/N=C/c2ccc3c(c2)OCO3)c(C)c1 | inconclusive [inhibitor, single point] | –
70 | Cc1ccc(N2CN(CCc3ccccc3)CNC2=S)cc1 | active: 12.6 µM | –
71 | O=S(Cc1ccccc1)CC(O)(c1ccc(Cl)cc1)c1ccc(Cl)cc1 (stereo not drawn) | inactive | –
72 | CCN1CCN(C(=O)c2ccc3c(=O)n(C4CCCC4)c(=S)[nH]c3c2)CC1 | active: 14.1 µM | –
73 | CC[C@H](C)[C@H](NC(=O)[C@@H](NC(=O)[C@@H](NC(=O)[C@H](CCC(=O)O)NC(=O)[C@H](CCC(=O)O)NC(=O)[C@H](CCC(=O)O)NC(=O)[C@H](C)NC(=O)[C@@H](N)CC(C)C)C(C)C)C(C)C)C(=O)N[C@@H](CCCNC(=N)N)C(=O)N[C@@H](CO)C(=O)N[C@@H](C)C(=O)N[C@@H](CC(N)=O)C(=O)N[C@@H](Cc1ccccc1)C(=O)N[C@H](C(=O)N[C@@H](CC(=O)O)C(=O)N[C@@H](CC(N)=O)C(=O)O)[C@@H](C)O | inactive | –
